This is an account of results in PMC12136788.

B1: chr4:144460044:144460045:+_ENSG00000153147_ENST00000283131|hu_mus|hu_hu_hu_mus_False|68_98 (ssRNA)
RNA: GGGAGUUCUACAGUCCGACGAUCACGGUCCAUAGCCUGAAGAUCUACUUGCGGAUUCCAAUCUGAGUCAUACAAAAUGACUACAUCAGCAGUUGCAAGAUUGAUGCCCAGACCACCAGCACGUGUGCUUAGCAUAAAUACAAACAACAGAGGAUUGAGCAUCA
B2: 18851253_18852991_7064_CDS_ENSG00000157106_ENST00000446231|human|control|control (ssRNA)
RNA: GGGAGUUCUACAGUCCGACGAUCGUAGGAAUCUUGGGCCUUUUGUGCUUGUAAGGCAGCUUCCCGUUGUUGCCAUCGUUUGUAAAGACCAAAUAAGGGUGUGGCUCCAUCUACCCACUGGAUUAGUCCUGAUCUUGUUCCUAGCAACAGAGGAUUGAGCAUCA
B3: chr7:140404665:140404666:+_ENSG00000090266_ENST00000247866|hu_hu|hu_hu_hu_mus_False|38_98 (ssRNA)
RNA: GGGAGUUCUACAGUCCGACGAUCUGCUCCUACUCGUAGGCUGAGUCUACAGUGUCAGUCCUCGUCAUCAGGAGGGAUUCCCAGUUCUUCAUCUGUCCACUGGGAAGGAUCUGGAUAUGAAAAGUGACCCAGCACAGCAUCCGACAACAGAGGAUUGAGCAUCA
B4: chr18:56819859:56819860:+_ENSG00000166562_ENST00000588875|hu_mus|motif|central (ssRNA)
RNA: GGGAGUUCUACAGUCCGACGAUCAACCUUGAUUACUCUGUGAACUAUCGGAAUGUCUCUUCCUUCAACCUUAAAAACAACGGUUUCACCAGCUCUGAUGGGGUCCUCCCGGAAAUUCGUGAGGAACAGCAGAUCUCCUCUGUGCAACAGAGGAUUGAGCAUCA
B5: 6688018_6690264_5096_CDS_ENSG00000111642_ENST00000544040|human|control|control (ssRNA)
RNA: GGGAGUUCUACAGUCCGACGAUCUUCUACCACAAUAGGGGUCAGAUCUAUUGCUGACUUUUCCUCCACCUUCUCUACAUCAGCAGCACCUUUGGGCUCUGUCUCCAUAGGUUCCUCUGUUCUCUCCUUCACCUCUGCCUUUUCCAACAGAGGAUUGAGCAUCA
B6: chr5:128440902:128440903:+_ENSG00000066583_ENST00000173527|hu_mus|hu_hu_hu_mus_True|88_88 (ssRNA)
RNA: GGGAGUUCUACAGUCCGACGAUCUUGAACGGUGCUGCCAAGUCCUUUAGGGUAUUGUUCCGUUAUGAUAACUGGAAUCCCUAAGAUCCGAGCUCCUUGCAACAGUCUCUGUCCCACACUAAUGAUGUCCCCAAAGUAUUUGAUCAACAGAGGAUUGAGCAUCA
B7: chr5:128440902:128440903:+_ENSG00000066583_ENST00000173527|hu_mus|hu_hu_hu_mus_True|38_68 (ssRNA)
RNA: B6 RNA with A48G, U72A, G104A
B8: chrX:71549400:71549401:+_ENSMUSG00000019087_ENSMUST00000019231|mus_hu|mus_mus_mus_hu_False|58_78 (ssRNA)
RNA: GGGAGUUCUACAGUCCGACGAUCGCAGUAGGAAGAGGGAAGCUCUUCAGUCCAGUGGUCACAAAACUGGGAAAGCACAACCUAGACCACCGUCCCACCCUCAACCCCCCCACUGGCACAGGGUCACACAAUCUGGGUCAAAGACAACAGAGGAUUGAGCAUCA
B9: chr16:94651144:94651145:+_ENSMUSG00000040785_ENSMUST00000117648|mus_hu|mus_mus_mus_hu_True|48_98 (ssRNA)
RNA: GGGAGUUCUACAGUCCGACGAUCAUUUUCUUGAAUCAAGUGACCGAUAACAUAGUCCACUGCUUCAUUUAGAAAAUUUCUGCUAGAAAAGCAUGUUGUAUAGUCUUCUGUGCUCAAAACUUUCCAAGAAAGCAAUUCUUUGAGCAACAGAGGAUUGAGCAUCA
B10: 119775107_119775227_77_5pUTR_ENSMUSG00000030172_ENSMUST00000032279|mouse|control|control (ssRNA)
RNA: GGGAGUUCUACAGUCCGACGAUCGAAGAAAAAAACAACAAUGUGAUUCUGUGAGGUUUCUCUAUGGCUAUAAAGUCAGCUUACAGCUAACAGAAGUAGCAGGCCAGCAGCUGUCCAAUCUUGAAGAAAUAUCUUAUGCCAUAUCAACAGAGGAUUGAGCAUCA
B11: chr9:44212477:44212478:-_ENSMUSG00000032112_ENSMUST00000034623|mus_mus|motif|central (ssRNA)
RNA: GGGAGUUCUACAGUCCGACGAUCUGGAUUCUUGAGGGCAAAGUCUGAGUAAAUUUCAUAAAUUUUUCGGAGAAGAGAAUCGGUUCCAGCUUGCCUAGGGUCUGCCAGGACCACAAACUUGAUCCCUGUCAGUGUUUGGAAGCACAACAGAGGAUUGAGCAUCA
B12: chr2:60072322:60072323:+_ENSMUSG00000026977_ENSMUST00000102748|mus_hu|FALSE|FALSE (ssRNA)
RNA: GGGAGUUCUACAGUCCGACGAUCUGAUCUUGUAUUCAAGGAAUCCUGACUAGAUCUUCGUGAAAAAAAAGUAGAUGACAUGCUAGAAGCUAUGCGUGACAGCAAUCUCCUCGUUGUCCGCCUACCUUCAUUGUCAGAAGAUUCCAACAGAGGAUUGAGCAUCA
B13: 84311146_84315497_1198_CDS_ENSG00000065609_ENST00000520302|human|control|control (ssRNA)
RNA: GGGAGUUCUACAGUCCGACGAUCAGCCAAAGAAUCCUCUCCCAAAAGGUCUCCCCAUGCAGUGGCUCCUCCAGCAGGUGGUGGUGGUGCUGGUGCUGCGGCUGCUGCUGCCCCUCCAGAGGAAAAGUCUGGCUGGAGGUCCAGCAACAGAGGAUUGAGCAUCA
B14: 14366535_14366655_1968_3pUTR_ENSMUSG00000013076_ENSMUST00000013220|mouse|control|control (ssRNA)
RNA: GGGAGUUCUACAGUCCGACGAUCUCACUCUAGCCUGCGCAUUGCUCAAAGCCUGGUCCAGGAUCUCGAUGUGCCUCCGAUGGUCCUCACUUGCCGUACGCACUGCUGCCAACUCCAUUUCCAACUUUUCCUUUUCCUUCAAGACAACAGAGGAUUGAGCAUCA
B15: 68591999_68592467_227_CDS_ENSG00000184939_ENST00000398253|human|control|control (ssRNA)
RNA: GGGAGUUCUACAGUCCGACGAUCAUAGAAAGGUCGUUGGAUUUCUCCCUCUGAUAUCCAUGGCUCUUCUCCUUGCUCCAAUUUGAAGAUCACCUCUGGCUUGGAAACUUGAUAUCCAAGAGAAACCAGGUGGCUAUAGUUCUCCAACAGAGGAUUGAGCAUCA
B16: 98117991_98118111_2156_3pUTR_ENSG00000125249_ENST00000245304|human|control|control (ssRNA)
RNA: GGGAGUUCUACAGUCCGACGAUCAUCUUUUCAGCAUUUAUGUAUAACUAAGUUAGCUGAAGACCCCUCUAUACUUGAUUGUAAAACUUAUGAAUAGGUUUUUCCUGUGCCAUUAGUCAUGCAAAUGAUAAAUACUUCACGACUCAACAGAGGAUUGAGCAUCA
B17: chr12:45383586:45383587:+_ENSMUSG00000036257_ENSMUST00000043082|perfect_dup|motif|central (ssRNA)
RNA: GGGAGUUCUACAGUCCGACGAUCGUAAAUAUAUAUAUCUACAGUCAGAUUAAUAGACAUAACUUAAAAAUCAUUUAUUUUCGGUGACAUUCUCUCACUUCUUGAACGCUUCAUUUAAGAAAUGCCAUAAUUCAUGGUCUUACUCAACAGAGGAUUGAGCAUCA
B18: chr11:54683702:54683703:+_ENSMUSG00000020267_ENSMUST00000020504|mus_mus|FALSE|FALSE (ssRNA)
RNA: GGGAGUUCUACAGUCCGACGAUCACAUUUCUUGCCAACAAUCAUUAAAUGUCCUAGAAGACUUUCAUCAUCAUCAUCUGCUACAGAAAUCUGGGAUAUAUGCUUCUUGGGUAUCACCAGAAAGUGUGUUGGUGCUUGAGGGGACAACAGAGGAUUGAGCAUCA
B19: chr12:51141157:51141158:+_ENSG00000066084_ENST00000301180|hu_hu|motif|central (ssRNA)
RNA: GGGAGUUCUACAGUCCGACGAUCGGACAUGCAAAAGAUCAAUAAAGCAGAAAGCAAAAAAUAAAUUAGAGGCCUGAGGAACGGCAAAACUAGAUAAUCAGCCUCUAAGUAAAUGGGAGUUGGCCACACUUUGAGAUUAACAGACAACAGAGGAUUGAGCAUCA
B20: chr8:117878989:117878990:-_ENSG00000164754_ENST00000297338|hu_hu|motif|central (ssRNA)
RNA: GGGAGUUCUACAGUCCGACGAUCCCAGAGGCCCUCUUUUACUGAGAACAAAAUGUGCGUAGAACAUUGUUCUGGCUGGCGGUGAAAACAGAAGAAAACCUUGCUCUCCGCUGGGAGUUGGGCGGGCUGGGUGGCCCGGGGAGGCAACAGAGGAUUGAGCAUCA
B21: chr1:95363323:95363324:-_ENSG00000117519_ENST00000538964|hu_hu|FALSE|FALSE (ssRNA)
RNA: GGGAGUUCUACAGUCCGACGAUCAAGGACUAAAUACUGAGCUCCUUCUGUGUGGAUCUAAUAAUCAAUGCCUUGGUCGCUAUAUUGGUAAUCUCUGGGGUAGUCAUCCUGGUACUCGCCAUGAUACUCAUCAGGGUAUUCUGCCAACAGAGGAUUGAGCAUCA
B22: chr2:104430758:104430759:+_ENSMUSG00000027176_ENSMUST00000028599|mus_hu|motif|central (ssRNA)
RNA: GGGAGUUCUACAGUCCGACGAUCGCUGAUUACAACGUGCGCACUGACCGUCGAUGGGAAGCUAGAAAAGAAAAAUUAAACGGAAAACCACCCCCAAAUCAGUAAAGUUACCCCCUGCCCAGCUGAGCCAGACCGCCAACACCACAACAGAGGAUUGAGCAUCA

Numbering of substitutions follows the chain as printed. This is one part of the list.

This experiment addresses T1, UNK ZnF1-3 (human, UniProt Q9C0B0 31-174).
T1 sequence: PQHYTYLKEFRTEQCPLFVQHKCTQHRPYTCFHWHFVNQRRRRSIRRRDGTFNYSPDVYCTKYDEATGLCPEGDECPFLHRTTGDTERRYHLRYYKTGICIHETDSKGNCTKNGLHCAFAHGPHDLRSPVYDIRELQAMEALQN
Description: nsRBNS (natural sequence RNA bind-n-seq); RBNS binding buffer (assumed for nsRBNS): 25 mM Tris pH 7.5, 150 mM KCl, 3 mM MgCl2, 0.01% Triton X-100, 500 ug/ml BSA, 20 U/ml SUPERase-In, 4 C; UNK is unkempt and MSI1 is Musashi-1; names of the RNAs are library labels; protein concentration not given here; high values mean tight binding.
Molecule B1 yielded a binding signal of 1.05 enrichment R. Molecule B2 registered a binding signal of 0.481 enrichment R. As to B3, the binding signal came to 1.1 enrichment R. Molecule B4 yielded a binding signal of 0.736 enrichment R.

The molecule B5 came in with a binding signal of 0.572 enrichment R.

Molecule B6 yielded a binding signal of 0.765 enrichment R.

Turning to B7, the binding signal is 0.884 enrichment R. The same measure for B8: 1.69 enrichment R; for B9: 0.374 enrichment R. The same measure for B10: 1.28 enrichment R; for B11: 1.49 enrichment R. The same measure for B12: 0.449 enrichment R.

For the molecule B13, the binding signal was 1.94 enrichment R. As for B14, the binding signal came out at 0.802 enrichment R. In turn, B15 gave a binding signal of 0.826 enrichment R.

The molecule B16 had a binding signal of 0.885 enrichment R. In turn, B17 returned a binding signal of 0.379 enrichment R.

B18 displayed a binding signal of 1.14 enrichment R.

In turn, B19 showed a binding signal of 2.17 enrichment R. With B20, the binding signal was 1.5 enrichment R. The same measure for B21: 0.809 enrichment R. In turn, B22 returned a binding signal of 2.09 enrichment R.
